# Reference: article PMC4336329 (PLoS ONE, 2015)
# Screen size: about 310,000 compounds; about 14,000 (4.5%) showed an effect of 50% or more. Effects have a minus sign here. The list shows a part of the results.
# Biological target: human ether-à-go-go-related gene (hERG) potassium channel (human, UniProt Q12809)
# Experiment: primary screen, population patch clamp on CHO cells stably expressing hERG
# 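Also: peak tail current of the secondary pulse compared with the same well before compound.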
# human ether-à-go-go-related gene (hERG) potassium channel, sequence (Q12809 whole entry, looked up): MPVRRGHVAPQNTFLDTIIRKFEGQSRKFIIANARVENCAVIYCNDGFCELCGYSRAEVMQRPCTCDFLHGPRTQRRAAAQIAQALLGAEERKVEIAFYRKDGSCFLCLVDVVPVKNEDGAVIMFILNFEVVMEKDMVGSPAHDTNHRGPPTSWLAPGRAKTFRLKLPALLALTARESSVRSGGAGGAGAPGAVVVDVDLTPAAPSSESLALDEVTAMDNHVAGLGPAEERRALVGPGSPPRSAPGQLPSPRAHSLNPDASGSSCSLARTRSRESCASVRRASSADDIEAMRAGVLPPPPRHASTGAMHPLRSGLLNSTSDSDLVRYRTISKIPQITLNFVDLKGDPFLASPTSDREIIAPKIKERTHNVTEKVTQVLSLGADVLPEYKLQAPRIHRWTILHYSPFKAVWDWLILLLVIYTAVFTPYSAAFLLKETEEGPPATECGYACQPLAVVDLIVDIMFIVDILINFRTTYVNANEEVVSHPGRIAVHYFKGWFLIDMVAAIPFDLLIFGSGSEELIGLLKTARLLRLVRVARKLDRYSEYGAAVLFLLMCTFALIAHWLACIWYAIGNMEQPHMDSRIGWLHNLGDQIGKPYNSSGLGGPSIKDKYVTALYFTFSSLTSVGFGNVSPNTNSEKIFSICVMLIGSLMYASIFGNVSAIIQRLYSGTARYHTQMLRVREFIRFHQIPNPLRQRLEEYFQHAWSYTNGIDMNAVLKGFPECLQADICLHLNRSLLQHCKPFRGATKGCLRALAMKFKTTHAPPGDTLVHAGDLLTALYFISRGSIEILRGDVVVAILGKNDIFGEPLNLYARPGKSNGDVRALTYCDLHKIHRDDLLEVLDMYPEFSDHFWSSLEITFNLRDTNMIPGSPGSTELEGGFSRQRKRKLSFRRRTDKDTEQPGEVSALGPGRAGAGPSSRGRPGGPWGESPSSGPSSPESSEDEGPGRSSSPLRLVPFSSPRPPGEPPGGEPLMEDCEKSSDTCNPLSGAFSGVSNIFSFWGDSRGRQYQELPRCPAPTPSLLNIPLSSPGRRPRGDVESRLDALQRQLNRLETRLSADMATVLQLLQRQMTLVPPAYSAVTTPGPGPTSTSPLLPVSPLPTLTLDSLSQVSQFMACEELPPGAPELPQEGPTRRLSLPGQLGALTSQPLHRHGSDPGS
row,SMILES,"hERG current change (%, negative = inhibition) at 10uM"
1,CCCCn1c(SCC(=O)NCc2ccco2)nnc1-c1ccco1,-19.9%
2,Cc1cc(N/N=C/c2ccccc2[N+](=O)[O-])nc(-n2nc(C)cc2C)n1,-2.42%
3,Cc1ccc2oc3c(c(=O)c2c1)C(c1cccs1)N(CCCN(C)C)C3=O (stereo not shown),-8.09%
4,CSCc1cc(N(C)C)nc(SCc2ccc(Cl)c(Cl)c2)n1,-3.51%
5,CCOC(Cn1c(-c2ccc(OC)cc2)nc2ccccc21)OCC,-13.2%
6,CC(=O)N[C@@H](Cc1ccc(O)cc1)CN1C(N)=NC[C@@H]1CC(C)C,5.45%
7,COCCn1c(C)cc(C(=O)CSc2ncn[nH]2)c1C,10.2%
8,COCc1cc(C)nc(Nc2ccc(C)c(C)c2)c1C#N,-5.71%
9,Cc1c(C(=O)c2cccc([N+](=O)[O-])c2)c2ccccn2c1CCC#N,-12.2%
10,C=CCc1ccccc1OCCOc1ccc([N+](=O)[O-])cc1/C=N/NC(N)=O,38.8%
11,COc1ccc2oc(=O)c(C(=O)Oc3ccc(NC(C)=O)cc3)cc2c1,-10.4%
12,N=Nc1c(O)n(CC(=O)Nc2ccccc2)c2ccccc12,2.87%
13,Cc1ccc(-n2c(SCC(=O)Nc3ccc4c(c3)OCO4)nnc2-c2ccoc2C)cc1,-42.2%
14,C=CCN(CC=C)S(=O)(=O)c1ccc(NC(=S)NC(=O)Cc2ccc(OC)cc2)cc1,14.7%
15,COc1ccccc1NC(=O)CCNS(=O)(=O)c1ccc2c(c1)CCN2C(C)=O,-11.5%
16,CCc1nc2ccccc2c(C(=O)Nc2cccc(C)c2)c1C,23.3%
17,CCN1C(=O)/C(=C\N2CCN(c3ccccc3)CC2)SC1=S,5.21%
18,COc1cc(/C(C)=N/NC(=O)c2cccc(S(=O)(=O)N3CCCC3)c2)cc(OC)c1OC,12.2%
19,CN(CCc1ccccn1)C(=O)CCNC(=O)Cn1cnc2ccccc2c1=O,19.7%
20,CCC(=NCc1ccc2c(c1)OCO2)c1c(O)n(C2CCCCC2)c(=O)[nH]c1=O,-3.04%
21,COc1ccccc1/C=N/NC(=O)c1ccccc1NS(=O)(=O)c1ccc(C)cc1,9.08%
22,O=C(NC1CCCC1)C(c1ccc(Cl)cc1)N(C(=O)c1csnn1)C1CC1 (stereo not shown),-3.03%
23,Cc1cc(C)cc(NC(=O)c2ccc(NC3=NC4CS(=O)(=O)CC4S3)cc2)c1 (stereo not shown),-0.378%
24,COc1ccc(C(=O)Nc2ccccc2C(=O)NCc2cccnc2)cc1,-3.89%
25,CCCC1C(=O)N2C(N(C)C)=Nc3ccc(C)cc3N2C1=O (stereo not shown),15.6%
26,Cc1nn(CC2CC2)c(=O)n1-c1cccc(Cl)c1,15.7%
27,COc1ccc(NC(=O)c2cc([N+](=O)[O-])nn2Cc2ccccc2)c(C)c1,-3.25%
28,O=S(=O)(NCc1ccc(C(F)(F)F)cc1)c1ccc(-n2cnnn2)cc1,-22.2%

row,SMILES,"hERG current change (%, negative = inhibition) at 10uM"
1,CCOc1ccccc1Nc1nc(-c2sc(NC(=O)c3ccc([N+](=O)[O-])cc3)nc2C)cs1,-10.3%
2,CCc1ccccc1N(CC(=O)N1CCCCC1)S(=O)(=O)c1ccccc1,10.6%
3,O=C(c1ccc(F)c(S(=O)(=O)N2CCOCC2)c1)N1CCN(c2ncccn2)CC1,-4.06%
4,COc1ccc(C(=O)CNc2ccccc2CO)cc1,22.8%
5,O=C(c1cc(-c2ccccc2)on1)N1CCCCCC1,6.65%
6,O=C(NCCc1ccccc1)c1ccc2nc3cc(Cl)ccc3c(=O)n2c1,14.1%
7,O=C(N/N=C/c1ccc([N+](=O)[O-])o1)c1cn2ccc3ccccc3c2n1,-7.47%
8,C=CCc1ccccc1OCC(O)CNC(C)C.Cl (stereo not shown),-33.3%
9,Cn1c(SCC(=O)NCC2CCCO2)ncc(C(=O)Nc2ccc(F)cc2)c1=O (stereo not shown),-13.5%
10,Cc1ccc(NC2CCCN(C(=O)c3ccoc3)C2)cc1C (stereo not shown),13.8%
11,CCN(Cc1ccncc1)C(=O)c1cccs1,2%
12,Cc1noc(C)c1CSc1nnc(-c2ccncc2)n1-c1ccc(Cl)c(Cl)c1,-12.8%
13,O=C(CCl)NN1C(=O)NC(c2ccccc2)(c2ccccc2)C1=O,11.2%
14,Cc1ccc(SCC(=O)OCC(=O)Nc2ccc3[nH]c(=O)[nH]c3c2)cc1C,12.5%
15,COc1cc(NC(=O)Cc2ccc(S(=O)(=O)N3CCOCC3)s2)c(OC)cc1Cl,-13.1%
16,O=C(CSc1ccccc1F)NCCCN1CCCC1=O,14.9%
17,NC(=O)c1nsc(C(=O)N(c2ccccc2)C(C(=O)NCC2CCCO2)c2cccs2)c1N (stereo not shown),9.06%
18,Cc1ccc(C(C)(C)C)cc1S(=O)(=O)N1CCC(C(=O)N2CCN(c3ccc(O)cc3)CC2)CC1,2.64%
19,CCn1nc(C(=O)N2CCc3ccccc3C2)c2ccccc2c1=O,-13.6%
20,Cc1cccc(C)c1NC(=O)CSc1nnc(-c2ccco2)n1N,-4.1%
21,O=C(Cn1cnc2cc([N+](=O)[O-])ccc2c1=O)Nc1cccc2ccccc12,-5.73%
22,O=C(NCc1ccco1)c1nnc(Cc2ccc(F)cc2)o1,-4.47%
23,CCOC(=O)Cc1csc(NC(=O)C(C)(C)C)n1,13%
24,CCN(CC(O)Cn1c2ccccc2c2ccccc21)S(=O)(=O)c1ccc(C)cc1 (stereo not shown),15.1%
25,O/N=C1/CCCSc2ccccc21,-4.9%
26,Cc1ccc(S(=O)(=O)N(C)C)cc1NC(=S)N(C)C1CCN(C)CC1,16.2%
27,C=C(C)CN1C(=O)C(O)(CC(=O)c2ccc3c(c2)OCCO3)c2ccccc21 (stereo not shown),-9.08%
